Measured values reported in the supplement of paper PMC12217912.
The list shows a part of the results. Sequences were assembled here from the parent chain. Inactive controls read about 0.05.

B1: TEV protease; numbered along this chain (parent)
chain: MGESLFKGPRDYNPISSSICHLTNESDGHTTSLYGIGFGPFIITNKHLFRRNNGTLVVQSLHGVFKVKDTTTLQQHLVDGRDMIIIRMPKDFPPFPQKLKFREPQREERICLVTTNFQTKSMSSMVSDTSCTFPSGDGIFWKHWIQTKDGQCGSPLVSTRDGFIVGIHSASNFTNTNNYFTSVPKNFMELLTNQEAQQWVSGWRLNADSVLWGGHKVFMVKPEEPFQPVKEATQL

Variants of: B1
Assay: raw area under fraction-flipped curve 0-4 h after induction (AUC4h, not background-subtracted), DNA-recorder readout of cleavage of the substrate (dimensionless); higher = more cleavage of the substrate by the protease variant
Conditions: temperature: 34 °C; time window: 0-4 h after rhamnose induction
Protocol: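 In vivo DNA recorder in E. coli TOP10(DE3) ΔrhaA at 34 °C. Each TEVp single-site mutant (parent TEVp 0) is paired with a single-site variant of the 7-mer TEVs (canonical ENLYFQ|S). The substrate sits between flexible linkers in a Bxb1-sfGFP-TEVs-SsrA fusion, so cleavage stabilises Bxb1 and speeds flipping of a recombination array, read by NGS. The value is the raw area under the fraction-flipped curve over 0-4 h after rhamnose induction (AUC4h), with ≥20 reads per time point. It is not background-subtracted; inactive controls average about 0.047.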
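Further: Bxb1 expression induced with 0.2% (w/v) L-rhamnose at OD600 near 0.5, cultures sampled hourly, flipped fraction per protease–substrate barcode pair counted by paired-end Illumina sequencing.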

| Variant | area with substrate ENAYFQS | area with substrate ENDYFQS | area with substrate ENEYFQS | area with substrate ENFYFQS | area with substrate ENGYFQS | area with substrate ENIYFQS | area with substrate ENKYFQS | area with substrate ENNYFQS | area with substrate ENQYFQS | area with substrate ENRYFQS | area with substrate ENMYFQS | area with substrate ENSYFQS | area with substrate ENTYFQS | area with substrate ENWYFQS | area with substrate ENHYFQS | area with substrate ENVYFQS | area with substrate ENYYFQS | area with substrate ENCYFQS | area with substrate ENPYFQS |
| --- | --- | --- | --- | --- | --- | --- | --- | --- | --- | --- | --- | --- | --- | --- | --- | --- | --- | --- | --- |
| N186C | 0.0848 | 0.0468 | 0.0739 | 0.0623 | 0.0521 | 0.125 | 0.0747 | 0.0506 | 0.0606 | 0.0774 | – | – | – | – | – | – | – | – | – |
| T174V | 0.0612 | 0.0623 | – | 0.0499 | 0.0487 | 0.0843 | – | 0.0506 | 0.0548 | 0.0604 | 0.0672 | 0.0613 | 0.053 | 0.0469 | – | – | – | – | – |
| I145W | 0.0592 | – | – | 0.0536 | 0.0646 | – | – | 0.0519 | 0.0584 | 0.0467 | – | 0.0587 | – | 0.0142 | 0.0519 | 0.0597 | – | – | – |
| Y179I | 0.0572 | 0.0466 | 0.0597 | 0.0596 | – | 0.0589 | – | – | 0.0486 | – | – | 0.0576 | – | – | 0.0685 | 0.0406 | 0.0858 | – | – |
| Y179V | 0.0503 | 0.0525 | – | 0.0544 | – | 0.0602 | – | – | 0.0581 | – | – | – | – | – | 0.0538 | 0.0568 | 0.165 | 0.0322 | – |
| K148Y | 0.0449 | 0.0551 | 0.0562 | – | – | 0.113 | 0.068 | – | – | – | – | 0.069 | 0.0675 | – | – | 0.0808 | 0.0591 | – | 0.0826 |
| K148D | 0.0545 | 0.0543 | 0.0686 | 0.0621 | – | – | – | 0.0629 | 0.0628 | – | – | 0.0686 | 0.0555 | – | 0.0649 | – | 0.0602 | 0.0546 | 0.0756 |
| K148S | 0.0644 | – | – | – | – | – | 0.0597 | – | 0.0697 | – | 0.0572 | – | 0.0618 | – | – | – | – | – | 0.0742 |
| N175V | 0.111 | 0.0751 | 0.0671 | – | 0.0564 | – | 0.0659 | 0.0518 | 0.0634 | – | – | 0.0551 | 0.0656 | 0.064 | – | 0.0538 | – | – | 0.0551 |
